Test results: the supplement of paper PMC12889115
The list shows a part of the results. No stated cut-off is given here; in the data, active = 25% or less and inactive = the rest. Most values come without repeats; read them as rough.

The compounds below were run on Salmonella enterica serovar Typhimurium SL1344 (assay: intramacrophage bacterial GFP load (SAFIRE), percent of DMSO control (% of DMSO); higher = more intracellular bacteria (less inhibition)). Conditions: 25 µM; system: infected RAW 264.7 macrophages.
Procedure: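 Secondary screen of the 553 primary hits at 25 µM. (i) S. Typhimurium SL1344 grown in Mueller-Hinton broth with 0.5 µg/mL polymyxin B, OD600 read after 18 h. (ii) SAFIRE assay: RAW 264.7 macrophages infected with S. Typhimurium sifB::gfp (MOI 30); compound added 2 h post-infection; cells fixed at 18 h; GFP-positive pixel fraction per macrophage imaged by confocal microscopy and expressed as % of DMSO control.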
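Further: compounds tested were the hits of an earlier 50 µM broth growth screen of a drug-like diversity library run with polymyxin B.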

Structure (SMILES)	intramacrophage bacterial GFP load
O=C(c1cn(Cc2ccccc2F)nn1)N(Cc1ccccc1)CC1CC1	inactive: 79.7
COc1cccc(CN2CCCC(C(=O)c3ccc(Cl)cc3C)C2)c1O (stereo not drawn)	active: 5.97
O=C(c1cn(Cc2c(F)cccc2F)nn1)N(Cc1ccccc1)CC1CCC1	inactive: 122
